# Reference: PubChem BioAssay AID1634 (National Center for Advancing Translational Sciences (NCATS), 2009)
# Out of some 260,000 compounds screened, about 150 (0.058%) were called active. This list was built around the results that the source calls inconclusive (neither active nor inactive); the mix of calls is not that of the screen. Calls follow the shape of the dose curve; as a rule, active = well fitted inhibition curve with a large enough effect; inconclusive = small, poorly fitted or top-dose-only effect; inactive = no such curve, though single readings can be large or run the other way. No potency is given beside an inconclusive call; the fits are too rough.
# Biological target: Pyruvate kinase PKM (Homo sapiens) (UniProt P14618)
# Experiment: qHTS Assay for Inhibitors of Human Muscle isoform 2 Pyruvate Kinase; also: nearly all actives have a fitted effect of over 60% in size;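 as to activity change, negative = inhibition: plate controls were uninhibited enzyme wells for no effect and no-enzyme wells for full effect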
# Conditions: purified PKM2, ATP generation, Kinase-Glo luminescence; series mostly up to 57.5 µM; activity change, negative = inhibition: at the top concentration
# Method: NIH Chemical Genomics Center [NCGC] Matthew G. Vander Heiden, M.D., Ph.D. [Harvard Medical School, 77 Avenue Louis Pasteur, Boston, MA 02115] […] ATP generation was detected in a coupled reaction by luciferase-mediated luminescence, an ATP-dependent process. […] The enzyme was assayed at an intermediate level of activity to screen for both inhibitors and activators.
# NCGC Assay Protocol Summary: Three uL of substrate mix (at r.t.) in assay buffer (50 mM Imidazole pH7.2, 50 mM KCl, 7 mM MgCl2, 0.01% Tween 20, 0.05% BSA) was dispensed into white solid bottom 1,536 well microtiter plates so that the final concentrations of substrates in the assay were 0.1 mM ADP and 0.5 mM PEP. 23 nL of compound were delivered by a pin tool and 1 uL of enzyme mix in assay buffer (4 degree Celsius) was added. Plates were incubated at room temperature for 1 hour. Two uL of detection mix (Kinase-Glo, Promega; at 4 degree Celsius protected from light) was added and luminescence read by a ViewLux (Perkin Elmer) at 5 second exposure/plate. Data were normalized to the uninhibited and AC100 inhibition (no enzyme). To monitor activation, the first column contained a titration of the activator, NCGC00031955-01 (16-point 1:2 dilutions in duplicate starting at 57 uM) and the first 16 rows of column 4 contained 57 uM of NCGC00031955-01.
# Potency is read from the fitted curve at half-maximal effect; tags tell the direction and shape of the fitted curve.
# UniProt P14618, sequence (P14618 whole entry, looked up, canonical isoform): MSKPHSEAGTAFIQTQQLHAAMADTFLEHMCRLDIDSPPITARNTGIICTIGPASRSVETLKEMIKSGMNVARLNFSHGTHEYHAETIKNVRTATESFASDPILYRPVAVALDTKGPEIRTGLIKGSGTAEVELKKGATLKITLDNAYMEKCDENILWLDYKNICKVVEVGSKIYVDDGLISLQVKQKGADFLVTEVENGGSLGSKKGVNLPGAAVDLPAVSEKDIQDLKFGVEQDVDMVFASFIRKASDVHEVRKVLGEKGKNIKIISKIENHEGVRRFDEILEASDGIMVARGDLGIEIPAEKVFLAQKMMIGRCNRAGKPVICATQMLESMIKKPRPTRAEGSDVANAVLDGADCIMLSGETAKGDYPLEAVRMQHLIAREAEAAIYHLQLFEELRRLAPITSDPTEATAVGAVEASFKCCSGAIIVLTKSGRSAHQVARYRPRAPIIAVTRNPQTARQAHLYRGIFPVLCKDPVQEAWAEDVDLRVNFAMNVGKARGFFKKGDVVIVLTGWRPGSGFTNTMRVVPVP
Structure (SMILES),"activity change, negative = inhibition",Potency
Cc1ccc(N(C(=O)c2ccc(CN3CCOCC3)o2)C(C(=O)NCCC(C)C)c2cccs2)c(C)c1 (stereo unspecified),inactive: 33.7%,
CN(C#N)c1nccc(-c2cccs2)n1,,"inconclusive [falling, single point]"
Cc1cc(C(=O)COC(=O)c2cccnc2Cl)c(C)n1CC1CCCO1 (stereo unspecified),,"inconclusive [falling, partial curve]"
COc1ccc(NC(=O)c2ccc(NC(=O)CSc3nccc(=O)[nH]3)cc2)cc1,inactive: 32%,
CSc1ccc(CN2CCC(C(=O)NCc3ccc(C)cc3)CC2)cc1,,"inconclusive [falling, single point]"
Clc1ccc(-c2nc3ccncc3[nH]2)cc1,,"inconclusive [falling, partial curve]"
CCOC(=O)c1c(N)sc(C(=O)Nc2ccc3c(c2)OCO3)c1C,,"inconclusive [falling, single point]"
CC(=O)Oc1ccc(NC(=O)Cc2ccccc2)c(C(=O)O)c1,inactive: -0.56%,
O=C1NC(=S)S/C1=C\c1ccc(SCc2ccco2)o1,,"inconclusive [falling, partial curve]"
COCCCn1c(=O)/c(=C\c2ccccc2OC(F)F)s/c1=C(/C#N)C(=O)N1CCOCC1,,"inconclusive [falling, single point]"
Cc1nc(N/N=C/c2ccccn2)sc1C,,active: 7.94 µM
O=C(Nc1ccccc1Oc1ccccc1)C1CC1,inactive: 63.9%,
CC1(C)Cc2ccccc2C(COc2ccccc2)=N1,,"inconclusive [falling, single point]"
C[n+]1c2n(c3ccccc31)N=C(c1ccccc1)CS2,,"inconclusive [falling, partial curve]"
O=C(c1ccc(Cl)c(S(=O)(=O)N2CCCCCC2)c1)N1CCN(c2ccccc2O)CC1,,"inconclusive [falling, single point]"
Cc1ccc(C(=O)Nc2ncc(C)s2)o1,,"inconclusive [falling, partial curve]"
CN(C)c1nc(N)nc(CSc2nnnn2-c2cccc3ccccc23)n1,inactive: 42.7%,
COc1ccc(Nc2nc(N)nc(CCl)n2)cc1,,"inconclusive [falling, single point]"
Cn1c(=O)c(Nc2ccc(O)cc2)c2c3c(cccc31)C(=O)c1ccccc1-2,inactive: 39.4%,
COCCn1c(C)cc(C2=NNC(=NC(C)(C)C)SC2)c1C,,"inconclusive [falling, single point]"
O=C(Nc1ccccc1)C(=O)Nc1cccnc1,,"inconclusive [falling, partial curve]"
CSCCC(NS(=O)(=O)c1c(Cl)cccc1Cl)C(=O)O (stereo unspecified),,"inconclusive [falling, single point]"
O=C(NCc1ccccc1Cl)C1CCCO1 (stereo unspecified),,"inconclusive [falling, single point]"

Structure (SMILES),"activity change, negative = inhibition",Potency
CCCCN1C=CC(=C2C(=O)c3ccccc3C2=O)C=C1,,"inconclusive [falling, single point]"
OCCN1CCN(C(=S)NC2CCCC2)CC1,,"inconclusive [falling, single point]"
CCc1nn(C(C)C(=O)NC(C)CCc2ccco2)c(=O)c2cc3occc3n12 (stereo unspecified),inactive: 45.9%,
O=C(c1ccc2c3n(nc2c1)-c1ccc(Cl)cc1CO3)N1CCCCC1,,"inconclusive [falling, single point]"
O=C(Nc1ccccc1)Nc1ccc(C(=O)N2CCOCC2)cc1,,"inconclusive [falling, single point]"
CCN1C(=O)/C(=C/C=C2\N(CC)c3cc(S(=O)(=O)N(C)C)ccc3N2c2ccccc2)SC1=S,,"inconclusive [falling, single point]"
COCCNC(=S)Nc1ccccc1Cc1ccccc1,,"inconclusive [falling, single point]"
O=C1N/C(=N\S(=O)(=O)Cc2ccccc2)S/C1=C/c1cc([N+](=O)[O-])ccc1O,,"inconclusive [falling, single point]"
CSC1=C(C#N)C(c2ccncc2)C(C(=O)Nc2ccccc2)=C(C)N1 (stereo unspecified),,"inconclusive [falling, single point]"
CS/C(Nc1cc(Cl)ccc1Cl)=C(/C#N)C(=O)c1ccco1,,"inconclusive [falling, single point]"
COc1ccc(-c2ccc(=O)n(CC(=O)Nc3nnc(C(C)C)s3)n2)cc1OC,,"inconclusive [falling, single point]"
O=[N+]([O-])c1ccc(Sc2nnnn2-c2ccccc2)nc1,inactive: 64.2%,
O=C(Nc1cccc(S(=O)(=O)NC2=NCCC2)c1)c1cc(-c2ccco2)nc2ccccc12,inactive: 34.9%,
CC(C)CC(CC(C)C)=NNC(=O)c1ccc2c(c1)OCO2,,"inconclusive [falling, single point]"
Fc1ccccc1-c1nc(-c2ccccc2)no1,,"inconclusive [falling, single point]"
CC(=O)c1c(C)[nH]c(C(=O)Nc2cccc(S(=O)(=O)N(C)c3ccccc3)c2)c1C,inactive: 41.3%,
Cc1cc(C)c2cc(CN(Cc3ccco3)C(=O)NCc3ccccc3)c(=O)[nH]c2c1,inactive: 50.7%,
O=S(=O)(c1ccccc1)C1(C2CC(c3ccccc3)=NO2)CC(O)C1 (stereo unspecified),inactive: 0.0934%,
COc1ccc(N2CCN(C(=S)NC(=O)c3cccs3)CC2)c([N+](=O)[O-])c1,,"inconclusive [falling, single point]"
Cc1ccc(-c2csc(NC(=O)c3cccc(N4C(=O)CCC4=O)c3)n2)o1,inactive: 43.5%,
COc1ccc(/C=C/C(=O)NCC(=O)N/N=C(/CCC(=O)O)c2ccccc2)cc1,,"inconclusive [falling, single point]"
O=C(N=Nc1c(O)[nH]c2ccccc12)c1ccc2c(c1)OCO2,,"inconclusive [falling, single point]"
COc1cccc(C(=O)c2cc3ccc(O)cc3oc2=O)c1,,"inconclusive [falling, partial curve]"
